Article PMC12136788
The other results are listed elsewhere or left out.

T1: UNK ZnF1-3 (human, UniProt Q9C0B0 31-174)
T1 sequence: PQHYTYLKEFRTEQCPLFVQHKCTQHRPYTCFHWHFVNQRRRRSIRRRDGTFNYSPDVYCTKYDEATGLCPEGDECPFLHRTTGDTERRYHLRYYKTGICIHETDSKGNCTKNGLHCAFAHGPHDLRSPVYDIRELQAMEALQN

B1: 40850453_40850573_1439_3pUTR_ENSG00000132872_ENST00000255224|human|control|control (ssRNA)
RNA: GGGAGUUCUACAGUCCGACGAUCAAAACCAAAAAUUCAACACUUAUAUCUUCAAGGCCCUCACAAGGAAUAUCAAAGACAAACAGCUCAUUGAACACUGCAUUGGGGGUGCAUUUCUUCACAUGAGUCUUCUUCUUGGAGAUUCAACAGAGGAUUGAGCAUCA
B2: chr17:64801638:64801639:+_ENSG00000154229_ENST00000413366|hu_mus|hu_hu_hu_mus_False|28_98 (ssRNA)
RNA: GGGAGUUCUACAGUCCGACGAUCUAUAUAUAUAUAUAUAUACACACACAUAUAUAGUAAAACCCUAGUUAAACGUGUAAAGUAGCCAUUCAUUUUUAAAAUUACAUCUACAUUUAAAAAUUAAUAUAUCUGAUAGAGUGCCAGCAACAGAGGAUUGAGCAUCA
B3: chr10:97366135:97366136:-_ENSG00000059573_ENST00000371224|hu_mus|FALSE|FALSE (ssRNA)
RNA: GGGAGUUCUACAGUCCGACGAUCACGAGCUUUCGUAAAAGAAAUGAAAUUACAUGUCGAGAGGCUGAGAAUGGCUGGGCUGGUCCCAGUCAAAACGCCAAGAGACUUUACCUCACUGAGGCGUUCCGGCAGCCAGGACUUUCCCAACAGAGGAUUGAGCAUCA
B4: chr6:86475052:86475053:-_ENSMUSG00000051695_ENSMUST00000053015|mus_hu|FALSE|FALSE (ssRNA)
RNA: GGGAGUUCUACAGUCCGACGAUCCUCAUUAAUGUUGGCGCCUUGGCGCCCGAUUAUGCAGCCAAUUAAGUUAUUUGGAAUGGUGAGUUCAUGGGUGGUUUGAGUAGAUGCAUCCAAACUUGCCCAAUAGCCUUUCACCUCUGGCAACAGAGGAUUGAGCAUCA
B5: chr1:63797873:63797874:+_ENSMUSG00000025962_ENSMUST00000128621|mus_hu|FALSE|FALSE (ssRNA)
RNA: GGGAGUUCUACAGUCCGACGAUCUCCUCUGGGGUGGCUUGAACCCAAACAAUAAGCAGAUCUGGAAACACAUAGCACAGCUACUCUUUGAAUAUCUGUAGCAGAAGUUGUAUCCACAUCAGAAAGUGGUAGCACUUGAUUCCUCAACAGAGGAUUGAGCAUCA
B6: chr1:43168039:43168040:+_ENSMUSG00000010290_ENSMUST00000010434|mus_hu|FALSE|FALSE (ssRNA)
RNA: GGGAGUUCUACAGUCCGACGAUCCUGUUUAGCGUCAUUAUUAUUGUGUUCCGUUUUAUUGUUCACAGGCAAAUUGGAAGACAAAAUUAGGGGUGAAACACUCGAAGAGGAAUUUGAUAAUUUUCUAAAGGCAUUACUGGUAAACAACAGAGGAUUGAGCAUCA
B7: chr1:82725849:82725850:+_ENSMUSG00000026150_ENSMUST00000078332|mus_hu|motif|central (ssRNA)
RNA: GGGAGUUCUACAGUCCGACGAUCGGACCCUCAUUCGCUGACUAAUGCCUUCAGUAUAUUCCAUUUCGUACUGAAUUCGACGGAUUUCUGCCAUCUCAGCAGCAGUGGGAGAAGGAAAUGCUGCCCUGCUCACCAAAUGUGUAACAACAGAGGAUUGAGCAUCA
B8: chr17:62496873:62496874:-_ENSG00000108654_ENST00000581693|hu_hu|FALSE|FALSE (ssRNA)
RNA: GGGAGUUCUACAGUCCGACGAUCUCCAAUUCGAUGAAUAUAAUCCUCUGAGGAGUUAGGGUAGUCAUAAUUGAUGACAAAUUUCACAUCUUCCACAUCUAGCCCUCUGGAGGCCACAUCUGUAGCAAUCAGAAUAGGAGCUUUCAACAGAGGAUUGAGCAUCA
B9: 35504872_35504992_1019_CDS_ENSMUSG00000041408_ENSMUST00000048263|mouse|control|control (ssRNA)
RNA: GGGAGUUCUACAGUCCGACGAUCUUCAUCAGCUUUAUAUUCAGAAGCCACUGCGGUUUCUGCAUUGGGUUUCUUAGUACUAUCUUCAGCAUUUUUGUGAAAGUGGUGACUAUUUUUUUCAUGUUCUUCACUAAAAUUCUCCACCAACAGAGGAUUGAGCAUCA
B10: chr21:34901235:34901236:-_ENSG00000159131_ENST00000381815|hu_hu|FALSE|FALSE (ssRNA)
RNA: GGGAGUUCUACAGUCCGACGAUCCAUGCCAUCCACUGUCCUCUGAAGAACAGUAUCUUUAAUUUUUAGUAAUAGAUCAUUAGAAACCUGAGGGGCUGGACAAUAGGCUCCCAUUCCCCCUGUGUUAGGGCCACCAUCUCCCUCCAACAGAGGAUUGAGCAUCA
B11: 124028550_124028670_1610_ncRNA_ENSMUSG00000049550_ENSMUST00000125340|mouse|control|control (ssRNA)
RNA: GGGAGUUCUACAGUCCGACGAUCGAUUCUUUUAAAAAUAUAUACACAUAUAAUAUAUAGACGUUGAAAUUAUGUAAAACCAGUAAAGAAAACACCACUGUCGGUCCAUGGGUGCAGCAUAUAGAUUAGAAAAUGUCCCCACAGCAACAGAGGAUUGAGCAUCA
B12: chr4:95690885:95690886:+_ENSMUSG00000028572_ENSMUST00000156910|mus_mus|mus_mus_mus_hu_False|8_38 (ssRNA)
RNA: GGGAGUUCUACAGUCCGACGAUCUUUAGAAAAUGUUAAAUACCAUGCUAAAAUAUUUUCAAAGGCUUAUUUUAUUUUACCAGAAGUCACAGGCAAGCAGACACCAUAAGAAUAUAUGAAAAUGAAACAACAGUGUAUAACUGUCAACAGAGGAUUGAGCAUCA
B13: chr16:17261293:17261294:+_ENSMUSG00000050240_ENSMUST00000090190|mus_mus|FALSE|FALSE (ssRNA)
RNA: GGGAGUUCUACAGUCCGACGAUCGACAUGCUCAGUGAGGGGCUCUGCUCCUAGUCCCUGAUUUUCUGCAGAUGAGGGUACCUACAGCCUGGGAGGCCACACAGACCUUGUGUCCUAGGCCUUAAGUGCUGGUAGGUGGGUGGGCAACAGAGGAUUGAGCAUCA
B14: chr19:27315782:27315783:+_ENSMUSG00000024924_ENSMUST00000167487|mus_mus|FALSE|FALSE (ssRNA)
RNA: GGGAGUUCUACAGUCCGACGAUCAGCCGCAUCAGUCCAGUAGAUGGUCUUGUACACCCAAUCAACAGCAAUGGCUGCAGGAUUAUAGACAUUGUCGAUCAUUUUAAAAUGUCUACCAACCUUGUCAUCAAUUGAGGCACUGAACAACAGAGGAUUGAGCAUCA
B15: 87906242_87906362_2047_CDS_ENSMUSG00000022019_ENSMUST00000168275|mouse|control|control (ssRNA)
RNA: GGGAGUUCUACAGUCCGACGAUCUUUUGCAUACUCCACAGGAAUAGAUGAUUCUAUCACCUUUUCAGGCUUAAUUGGCCCAGACCUUCUUUUGGGCCCACUAUUAUAAAAUAUUUUAUCAUCGUAGGGCACAGCUGUGACAGGCAACAGAGGAUUGAGCAUCA
B16: 48955391_48955511_1705_3pUTR_ENSG00000139687_ENST00000267163|human|control|control (ssRNA)
RNA: GGGAGUUCUACAGUCCGACGAUCUCAAGUUGCCUUCUGCUUUGAUAAAACUUUCGAUCACUUUGUAAAAAUCAAAGGCUUUUAAAUUAAGCACAUUCAGAAUCCAUGGGAAAGACAAAUCUGUUCCAGAAUCAAGAUUCUGAGCAACAGAGGAUUGAGCAUCA
B17: chr7:35913284:35913285:+_ENSG00000122545_ENST00000399035|perfect_dup|motif|central (ssRNA)
RNA: GGGAGUUCUACAGUCCGACGAUCAUCAGGCAUCUGACGUCUGUUCACUCGUGAUUCUGCAUUUAGGUAGUCCUCAAAUUUACGGUCAAUGUAGUCGAUAACAGGCUGCCAGCAAUUACUAUUAUCCACUGCAUCUCCAAAUCCCAACAGAGGAUUGAGCAUCA
B18: chr2:126738436:126738437:-_ENSMUSG00000027366_ENSMUST00000028844|mus_hu|FALSE|FALSE (ssRNA)
RNA: GGGAGUUCUACAGUCCGACGAUCAGGCAUGAGGCACACACUCAUUACUGAGAAAUAGAUCAGUUUUGGUACUCUGAUGACUACUGGCAACUUUUCAUUAUUUCCAAAAGGUCCAGCUGCGAGUUCAACCAUGAUACUCUCACCCAACAGAGGAUUGAGCAUCA
B19: chr10:75830775:75830776:+_ENSG00000035403_ENST00000372755|perfect_dup|FALSE|FALSE (ssRNA)
RNA: GGGAGUUCUACAGUCCGACGAUCCAUAGUCUCCACCACCUCUGCCACUGUAAGAUAUUCCAAAAUUCCUUUGCAAACUCUAAUAAUUUUACGGACCUCAGCCUCAUCGAAGGUAAGGAGCAGGUCUGAUGUUCCAGAGAGGAUCAACAGAGGAUUGAGCAUCA
B20: chr16:67133199:67133200:+_ENSG00000067955_ENST00000412916|hu_hu|motif|central (ssRNA)
RNA: GGGAGUUCUACAGUCCGACGAUCAUGCUACUAAGUUUUUAGCCUGUAAAUAAUGCAAACAACAUCAGCAGUUUUAAAAUGCGGUAGACUAUAAAAACACAAAAGGAAAUGGGGCAAACAAAACAAAAAAUAAGAAUGCUCAUCCAACAGAGGAUUGAGCAUCA
B21: 47489978_47490098_5123_3pUTR_ENSG00000149187_ENST00000395290|human|control|control (ssRNA)
RNA: GGGAGUUCUACAGUCCGACGAUCUUACUUCAAAGUUGUCUUUAAAACUAAGCACACAGAGAAACAAAGCCUAGAAACGGACUGGCUGUGUGUUCACAGAAAUACAAACACCACGCGGUAUGUGCUAGUAGGGCUGCUCUGAAGCAACAGAGGAUUGAGCAUCA
B22: chr3:94683992:94683993:+_ENSMUSG00000038902_ENSMUST00000107270|mus_mus|FALSE|FALSE (ssRNA)
RNA: GGGAGUUCUACAGUCCGACGAUCGUUAACGUUGCCAUCGGGACCUGGCAGAACACUAGCCACAAGGAAGGACCGCUGAACUAGCUCUGGGGAGUCCCCAAUGACACCCAGCACCUCUCCCAGCCAGACCAACACCAGCUGAAGCAACAGAGGAUUGAGCAUCA

target: T1, UNK ZnF1-3; experiment: nsRBNS (natural sequence RNA bind-n-seq); RBNS binding buffer (assumed for nsRBNS): 25 mM Tris pH 7.5, 150 mM KCl, 3 mM MgCl2, 0.01% Triton X-100, 500 ug/ml BSA, 20 U/ml SUPERase-In, 4 C; UNK is unkempt and MSI1 is Musashi-1; names of the RNAs are library labels; protein concentration not given here; high values mean tight binding

Binder	binding signal [enrichment R]
B1	1.2
B2	2.88
B3	0.794
B4	0.468
B5	0.982
B6	1.54
B7	0.905
B8	0.955
B9	0.498
B10	1.54
B11	2.92
B12	1.89
B13	0.639
B14	0.459
B15	0.927
B16	0.99
B17	1.1
B18	1.03
B19	1.38
B20	2.09
B21	1.14
B22	1.06
